Data: the supplement of paper PMC12217912
The list shows a part of the results. Sequences were assembled here from the parent chain. Inactive controls read about 0.05.

B1: TEV protease; numbered along this chain (parent)
chain: MGESLFKGPRDYNPISSSICHLTNESDGHTTSLYGIGFGPFIITNKHLFRRNNGTLVVQSLHGVFKVKDTTTLQQHLVDGRDMIIIRMPKDFPPFPQKLKFREPQREERICLVTTNFQTKSMSSMVSDTSCTFPSGDGIFWKHWIQTKDGQCGSPLVSTRDGFIVGIHSASNFTNTNNYFTSVPKNFMELLTNQEAQQWVSGWRLNADSVLWGGHKVFMVKPEEPFQPVKEATQL

Variants of: B1
Assay: raw area under fraction-flipped curve 0-4 h after induction (AUC4h, not background-subtracted), DNA-recorder readout of cleavage of the substrate (dimensionless); higher = more cleavage of the substrate by the protease variant
Conditions: temperature: 34 °C; time window: 0-4 h after rhamnose induction
Protocol: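 In vivo DNA recorder in E. coli TOP10(DE3) ΔrhaA at 34 °C. Each TEVp single-site mutant (parent TEVp 0) is paired with a single-site variant of the 7-mer TEVs (canonical ENLYFQ|S). The substrate sits between flexible linkers in a Bxb1-sfGFP-TEVs-SsrA fusion, so cleavage stabilises Bxb1 and speeds flipping of a recombination array, read by NGS. The value is the raw area under the fraction-flipped curve over 0-4 h after rhamnose induction (AUC4h), with ≥20 reads per time point. It is not background-subtracted; inactive controls average about 0.047.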
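Also: Bxb1 expression induced with 0.2% (w/v) L-rhamnose at OD600 near 0.5, cultures sampled hourly, flipped fraction per protease–substrate barcode pair counted by paired-end Illumina sequencing.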

Variant	area with substrate ENLYAQS	area with substrate ENLYEQS	area with substrate ENLYHQS	area with substrate ENLYIQS	area with substrate ENLYKQS	area with substrate ENLYLQS	area with substrate ENLYMQS	area with substrate ENLYNQS	area with substrate ENLYPQS	area with substrate ENLYRQS	area with substrate ENLYTQS	area with substrate ENLYVQS	area with substrate ENLYYQS	area with substrate ENLYDQS	area with substrate ENLYGQS	area with substrate ENLYSQS	area with substrate ENLYWQS	area with substrate ENLYQQS	area with substrate ENLYCQS
MGESLFKGPRDYNPIISSICHLTNESDGHTTSLYGIGFGPFIITNKHLFRRNNGTLVVQSLHGVFKVKDTTTLQQHLVDGRDMIIIRMPKDFPPFPQKLKFREPQREERICLVTTNFQTKSMSSMVSDTSCTFPSGDGIFWKHWIQTKDGQCGSPLVSTRDGFIVGIHSASNFTNTNNYFTSVPKNFMELLTNQEAQQWVSGWRLNADSVLWGGHKVFMVKPEEPFQPVKEATQL [S16I]	0.0875	0.0722	0.0602	0.117	0.0657	0.0711	0.0869	0.069	0.0618	0.0588	0.0995	0.0814	0.0628						
MGESLFKGPRDYNPISSSICHLTNESDGHTTSLYGIGFGPFIITNKHLFRRNNGTLVVQSLHGVFKVKDTTTLQQHLVDGRDMIIIRMPKDFPPFPQKLKFREPQREERICLVTTNFQTKSMSSMVSDTSCTFPSGDGIFWKHNIQTKDGQCGSPLVSTRDGFIVGIHSASNFTNTNNYFTSVPKNFMELLTNQEAQQWVSGWRLNADSVLWGGHKVFMVKPEEPFQPVKEATQL [W144N]	0.0761	0.0678	0.0591	0.0985	0.0645		0.0719	0.0634	0.0617	0.0619	0.0812	0.0851	0.0473	0.0629	0.0672	0.0708	0.0623		
MGESLFKGPRDYNPISSSICPLTNESDGHTTSLYGIGFGPFIITNKHLFRRNNGTLVVQSLHGVFKVKDTTTLQQHLVDGRDMIIIRMPKDFPPFPQKLKFREPQREERICLVTTNFQTKSMSSMVSDTSCTFPSGDGIFWKHWIQTKDGQCGSPLVSTRDGFIVGIHSASNFTNTNNYFTSVPKNFMELLTNQEAQQWVSGWRLNADSVLWGGHKVFMVKPEEPFQPVKEATQL [H21P]	0.0576	0.046	0.0502	0.0593	0.0566	0.0481	0.0425	0.0525	0.052	0.0545	0.0459	0.0573		0.0356	0.0541	0.0615	0.0331	0.0566	
MGESLFKGPRDYNPISSSICHLTNESDGHTTSLYGIGFGPFIITNKHLFRRNNGTLVVQSLHGVFKVKDTTTLQQHLVDGRDMIIIRMPKDFPPFPQKLKFREPQREERICLVTTNFQTKSMSSMVSITSCTFPSGDGIFWKHWIQTKDGQCGSPLVSTRDGFIVGIHSASNFTNTNNYFTSVPKNFMELLTNQEAQQWVSGWRLNADSVLWGGHKVFMVKPEEPFQPVKEATQL [D128I]	0.0779	0.0574	0.0896	0.127	0.0619	0.122	0.134	0.0705	0.083	0.0648		0.144		0.0911		0.0782	0.096	0.1	
MGESLFKGPRDYNPISSSICHLTNESDGHTTSLYGIGFGPFIITNKHLFRRNNGTLVVQSLHGVFKVKDTTTLQQHLVDGRDMIIIRMPKDFPPFPQKLKFREPQREERICLVTTNFQTKSMSSMVSDTSCTFPSGDGIFWKHWIQTKDGQCGSPLVSTRDGFIVGIHSASNFTNTNNYFTSVPKNFMELLINQEAQQWVSGWRLNADSVLWGGHKVFMVKPEEPFQPVKEATQL [T192I]	0.055	0.0628	0.0754	0.124	0.0194		0.0793	0.0694	0.0666	0.0626	0.074	0.106	0.0789	0.0548	0.0488	0.0833	0.09	0.0618	0.095
MGESLFKGPRDYNPISSSICHLTNESDGHTTSLYGIGFGPFIITNKHLFRRNNGTLVVQSLHGVFKVKDTTTLQQHLVDGRDMIIIRMPKDFPPFPQKLKFREPQREERICLVTTNFQTKSMSSMVSDTSCTFPSGDGIFWKHWIQTKDGQCGSPLVSTRDGFIVGIHSASNFTNTNNYFTSVPKNFMELLENQEAQQWVSGWRLNADSVLWGGHKVFMVKPEEPFQPVKEATQL [T192E]	0.072	0.0671	0.0695	0.147	0.0742			0.0651	0.0968	0.0581		0.0833	0.0503		0.05	0.078	0.0832	0.021	
MGESLFKGPRDYNPISSSICHLTNESDGHTTSLYGIGFGPFIITNSHLFRRNNGTLVVQSLHGVFKVKDTTTLQQHLVDGRDMIIIRMPKDFPPFPQKLKFREPQREERICLVTTNFQTKSMSSMVSDTSCTFPSGDGIFWKHWIQTKDGQCGSPLVSTRDGFIVGIHSASNFTNTNNYFTSVPKNFMELLTNQEAQQWVSGWRLNADSVLWGGHKVFMVKPEEPFQPVKEATQL [K46S]	0.0716	0.0652	0.0673	0.11	0.0654		0.0943	0.0652	0.0628	0.0642	0.0689	0.105	0.057	0.0539		0.0714	0.0799	0.0583	0.0866
MGESLFKGPRDYNPISSSICHLTNESDGHTTSLYGIGFGPFIIANKHLFRRNNGTLVVQSLHGVFKVKDTTTLQQHLVDGRDMIIIRMPKDFPPFPQKLKFREPQREERICLVTTNFQTKSMSSMVSDTSCTFPSGDGIFWKHWIQTKDGQCGSPLVSTRDGFIVGIHSASNFTNTNNYFTSVPKNFMELLTNQEAQQWVSGWRLNADSVLWGGHKVFMVKPEEPFQPVKEATQL [T44A]	0.0684	0.0581	0.0649	0.0809	0.0302	0.0569	0.0599	0.0599	0.0676	0.055	0.0783	0.0893	0.0653	0.0572	0.0641	0.0636	0.0562	0.0658	0.0742
MGESLFKGPRDYNPISSSICHLTNESDGHTTSLYGIGFGPFIITNKHLFRRNNGTLVVQSLHGVFKVKDTTTLQQHLVDGRDMIIIRMPKDFPPFPQKLKFREPQREERICLVTTNFQTKSMSSMVSDTSCTFPSWDGIFWKHWIQTKDGQCGSPLVSTRDGFIVGIHSASNFTNTNNYFTSVPKNFMELLTNQEAQQWVSGWRLNADSVLWGGHKVFMVKPEEPFQPVKEATQL [G136W]	0.0605	0.075	0.0549	0.104	0.0588	0.076	0.0707	0.0555	0.0676	0.0629	0.0639	0.0879		0.061	0.0618	0.084	0.0773	0.0738	
